These results are taken from the supplement of paper PMC11417369.

± gives the standard deviation of the averaged measurements. This is one part of the list.

In the experiment the test system is PfAP2-G AP2 domain (GST-tagged). The experiment can be described thus: gcPBM binding intensity (ln(normalized median fluorescence intensity)); higher = stronger DNA binding. The method, boiled down:
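In this array assay, P. falciparum DNA-binding domains with a GST tag, expressed in E. coli, were applied for 1 h to primer-extended double-stranded 36-bp intergenic genomic probes and negative controls on an Agilent 4 × 180k array. Bound protein was visualised with Alexa488 anti-GST antibody at 488 nm. Binding intensity is the highest Masliner-normalised natural-log median intensity across replicate spots of either probe orientation.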
On to “TATTTTGTATATAAATGTACAAGTATATATTTTTTC [XGTACX_site7855]”, for which the “gcPBM binding intensity (ln)” value was 11 ± 0.65.

Regarding “TATTTGTAATATTATACACACATTATATATTACAAA [CACACA_site5804]”, the “gcPBM binding intensity (ln)” value was found to be 9.98 ± 0.27. As for “TATGAATATTTGTATACATGCATATAGAAATCATAT [TGCATGCA_site533]”, the “gcPBM binding intensity (ln)” value is 9.8 ± 0.028. In the case of “ATATATTATATATATATATATATATATTATTATTGT [TGCATGCA_negctrl_site286]” it was 9.84 ± 0.45; in that of “TGCATTATTTACAAGGTGCGTTACAAATGTGTAACA [GTGCAC_site9442]”, 10 ± 0.2. In the case of “GCTTTAATCTGAAAGTGTACAGATAATATATTTATA [XGTACX_site2462]” it was 11.2 ± 0.8; in that of “ATATGGTGATATAGGTGTACATTTTGATGCTTATTT [XGTACX_site4283]”, 11.3 ± 0.71; in that of “TTATACATGAAATATTGTACACATATATATATATAT [XGTACX_site4378]”, 11.4 ± 0.86. In the case of “TACTATAACGCACATACACACAAAAAAAAAAAAAAA [CACACA_site8073]” it was 10.2 ± 0.68; in that of “TATATATATATTTTTGCATGTAATTTTTATGAGGAC [TGCATGCA_site884]”, 9.95 ± 0.26. “TTACTCAAACAAACAAAAAAAAAAAAAAAAAAAAAA [TGCATGCA_negctrl_site457]”: the “gcPBM binding intensity (ln)” value worked out at 9.53 ± 0.3.

Regarding TTTTTTTTTTTCTTAGTGCGCGTGAAAAATATAAAA, the “gcPBM binding intensity (ln)” value worked out at 10.4 ± 0.49. In the case of “AATTAGATTATGCACACACACTTAAAAATAATAAAT [CACACA_site7015]”, the “gcPBM binding intensity (ln)” value came out at 10.2 ± 0.22. In the case of “ATTTTTTATGGACAAAAGACCTCTGATGTAAATATA [CACACA_negctrl_site1081]”, the “gcPBM binding intensity (ln)” value came out at 10.8 ± 0.65.

With “ATATATAGAATGTGTACACACATATGTATTTATATA [CACACA_site810]”, the “gcPBM binding intensity (ln)” value amounted to 11.6 ± 0.86.

Consider “CTTTCTCTCAAAATGACATGCAATTTGTTTCTTTTT [TGCATGCA_site169]”, for which the “gcPBM binding intensity (ln)” value stood at 9.64 ± 0.16. With “ATTATTGATTTATAAACACACACTCGAAGATGTTTA [CACACA_site8294]”, the “gcPBM binding intensity (ln)” value was 9.98 ± 0.15. The result for “TTGAAATACTTTATTTGTACATATAGCAAAGTGTAT [XGTACX_site8782]” reads 11 ± 0.59.

In the case of “ATTTTTTCTAGACATGCATGTGAAATTTACTTTTTT [TGCATGCA_site305]”, the “gcPBM binding intensity (ln)” value came out at 9.945 ± 0.078. The result for “ATATATATATATATTTGTACTTAATTGATTTTACTT [XGTACX_site2663]” reads 10.9 ± 0.53. The result for “ATGCGTTTAGCAAAAAGTACATATATATATAATATT [XGTACX_site1928]” reads 11.2 ± 0.73. On to “ATTTTTTTTTAATGCAATATATTTTGAAAATTTTAT [CACACA_negctrl_site753]”, for which the “gcPBM binding intensity (ln)” value was determined as 9.855 ± 0.049.

In the case of “TTTTTTTTTTTTTTTACACACTTTATTCAAACAACT [CACACA_site4104]”, the “gcPBM binding intensity (ln)” value is 9.94 ± 0.52. In the case of “CTTTTTTTTTTTTTTGCACACACATATATAAATATA [CACACA_site3950]” it was 10.3 ± 0.24; in that of “AGTGGAAATTTTATTTGTACATAAATATTTACATAC [XGTACX_site633]”, 10.9 ± 0.66; in that of “AAAAAAATATATAATAGTACATATATAGGAATATAT [XGTACX_site4591]”, 10.9 ± 0.59. In the case of “TAATATCTTGAGTCATCACACATTGATTAATGAATC [CACACA_site5735]” it was 9.63 ± 0.15. Consider “TGAATACAGATATTCACACAAATAGTTTTGATATAT [CACACA_site5527]”, for which the “gcPBM binding intensity (ln)” value is 9.68 ± 0.16. Consider “TTTTTTTTTTTTTTTTTTTTTTTTTCATATTAATAT [GTGCAC_negctrl_site351]”, for which the “gcPBM binding intensity (ln)” value was 9.52 ± 0.33. For “AATTTATTAAAAAAATGTACTTATTTTTTTGTATAA [XGTACX_site5844]”, the “gcPBM binding intensity (ln)” value amounted to 11.2 ± 0.79. Regarding “ATTGATACATCCAATACACACTACATATTATGATGT [CACACA_site6965]”, the “gcPBM binding intensity (ln)” value was determined as 10.2 ± 0.13. The result for “TTGGCATACAGACACACACACACACCCCCACATATA [CACACA_site590]” reads 10.8 ± 0.54; that for “ACATATTGTAGATATTGTACATATTGTGTATATATT [XGTACX_site7620]”, 10.9 ± 0.64; that for “TATATATATGTTCTTACACACACGAATATATATATG [CACACA_site3304]”, 10.1 ± 0.13.

Consider “AATATGGAATGAAATAACAATCGGGAGTATATTACC [CACACA_negctrl_site93]”, for which the “gcPBM binding intensity (ln)” value amounted to 10.3 ± 0.13. For “ACGATTCAAAGGGAATATAAAATATTATTATCTATA [CACACA_negctrl_site1739]”, the “gcPBM binding intensity (ln)” value came to 9.54 ± 0.26. The result for “TGTATAAAAAGAAAAAATCGTATGTGTTATCAAAAA [GTGCAC_negctrl_site490]” reads 9.82 ± 0.13; that for “AATAGAATAATCCTTACACACACACCCACACGAATA [CACACA_site8053]”, 10.5 ± 0.48; that for “AACCAATATGCGTATACACACATAAATATAAATATA [CACACA_site3780]”, 10.2 ± 0.27. Consider “TTTTTTATATATTAGGAATTTATAAAATTAGAAGGT [GTGCAC_negctrl_site617]”, for which the “gcPBM binding intensity (ln)” value came to 10.1 ± 0.35. Regarding “TTTTTTTTTTTTTGAACACACATTATTAATTTTTAT [CACACA_site308]”, the “gcPBM binding intensity (ln)” value is 9.85 ± 0.28.

As for “ATATATTTTTTTTATACATGCAATGCATTTACGTTG [TGCATGCA_site565]”, the “gcPBM binding intensity (ln)” value was determined as 10.02 ± 0.042. The result for “AACCAGTTGATGTGTACACATATAGTAATAATTTTA [CACACA_site5564]” reads 11.6 ± 0.99; that for “TAATAAATTCAAAACATAAAAAGGAAAAAAAAAAAA [CACACA_negctrl_site1330]”, 9.63 ± 0.14.

For “TTTTGAATATATTAAATAAATTAAAAATCTACAAAC [GTGCAC_negctrl_site622]”, the “gcPBM binding intensity (ln)” value came to 9.77 ± 0.16.

For “AGATCATAATATTATACACACATTATATATCTGTAA [CACACA_site4925]”, the “gcPBM binding intensity (ln)” value is 9.925 ± 0.007. Regarding “TTTTTTTTTTTTTTGGTGCAGTTCACATATTATATA [GTGCAC_site9996]”, the “gcPBM binding intensity (ln)” value was determined as 10 ± 0.61. The result for “TTATTATATACAAAATGTACACAGAATAATTTGAAT [XGTACX_site2314]” reads 11.3 ± 0.87. The result for “ATATATATATATATATGTACATAATATATTATATAT [XGTACX_site924]” reads 11.3 ± 0.98; that for “TTATTATATTAAAAGAGGACACATTTATTTTTTTTT [XGTACX_site1241]”, 10.9 ± 0.67. With “TATATTAACAAAATGGTGCAATAATTTCTATATTGT [GTGCAC_site9430]”, the “gcPBM binding intensity (ln)” value is 9.94 ± 0.071. For the sequence “TGTGTAAGCACATACAAACACACAACCTTATTTTTA [CACACA_site2187]”, the “gcPBM binding intensity (ln)” value is 10.03 ± 0.042. In the case of “AAAAAAAAAAAAAAAAAAAAAAAAAAAAATAAAAAA [CACACA_negctrl_site59]” it was 11 ± 0.47. The result for “AAAATATTTAATAGAAGTACACATGTATATATACAT [XGTACX_site8942]” reads 11.6 ± 1.2; that for “TTTCAATGTGACACGTGTCCGTAAAATTACATAATT [XGTACX_site7073]”, 11 ± 0.59; that for “ATTAATAAAAGATAAAGTACAAATCGGAAAATGAAT [XGTACX_site7846]”, 11.1 ± 0.54.
